Source: ChEMBL document CHEMBL1201862, “PubChem BioAssay data set” (2004)

The molecules below were run on NCI-H322M (assay: NCI-60 cell line screen, 48 h).

| SMILES | GI50 |
| --- | --- |
| COc1ccc(CCc2cc(OC)c(O)c(OC)c2)cc1 | inactive: > 100 µM |
| C=C(/C=C/C=C(/CCC=C(C)C)COC(C)=O)[C@@H]1CC[C@]2([C@H](CCCO)/C(=C(/C)C=O)CC[C@]2(C)O)[C@@H]1O | inactive: 17.5 µM |
| c1nnc(NCNc2nncs2)s1 | inactive: 31.8 µM |
| N=C(N)SCc1ccc(Cl)c2ccccc12.O=[N+]([O-])c1ccc(O)c([N+](=O)[O-])c1 | inactive: 14.5 µM |
| S=C(S)NCCCn1ccnc1 | inactive: > 100 µM |
| Cc1ccc(S(=O)(=O)N2CCC(C(=O)O)(c3ccccc3)CC2)cc1 | inactive: > 100 µM |
| c1ccc2c(c1)nnn2CN1CCOCC1 | inactive: > 100 µM |
| CCOc1cc2c(cc1O)/C(=N\N)C[C@@H]1[C@@H]2CC[C@]2(C)[C@@H](O)CC[C@@H]12 | inactive: 13.3 µM |
| COc1ccccc1/C=C/c1ccnc2ccccc12 | inactive: 18.4 µM |
| COc1cccc(/C=C/c2ccnc3ccccc23)c1OC | inactive: > 10 µM |
| CC(=O)CC(O)(C(F)(F)Cl)C(F)(F)Cl | inactive: > 10 µM |
| CC(C)(CO)CNc1cc(=O)[nH]c(N)n1 | inactive: > 100 µM |
| Cc1ccc(C)c2c1C/C(=C\c1ccccc1C(=O)O)C2=O | inactive: > 100 µM |
| Cc1cc(=O)oc2c(CN(CCCl)CCCl)c(O)ccc12 | inactive: 56.4 µM |
| O=C(Nc1ccc(S(=O)(=O)Nc2ncccn2)cc1)c1c2ccccc2nc2ccccc12 | inactive: > 100 µM |
| COc1cc(O)ccc1C(=S)SC | inactive: 49.4 µM |
| O=C(CSc1nnc(Cc2ccccc2)o1)Nc1cccc([N+](=O)[O-])c1 | inactive: > 100 µM |
| Cc1ccc2nc3c(C(=O)NCCN(C)C)cccc3cc2c1 | inactive: 2.18 µM |
| Cc1ccc(NC(=O)OCC(COc2ccc(Cl)cc2)OC(=O)Nc2ccc(C)cc2)cc1 (stereo not drawn) | inactive: 26.8 µM |
| Cc1cc(S(=O)(=O)/N=C2\NCCN2Cc2ccccc2)c(S)cc1Cl | inactive: > 100 µM |
| CC1OC(=O)C(O)=C1O (stereo not drawn) | inactive: > 100 µM |
| CCOC(=O)/C(C(=O)c1ccc([N+](=O)[O-])cc1)=C(\NS(=O)(=O)c1cc(C)c(Cl)cc1[S-])[n+]1ccc(N(C)C)cc1 | inactive: 10.9 µM |
| CCCCC1CC(c2ccc(Cl)cc2)=NO1 (stereo not drawn) | inactive: > 100 µM |
| O=C1C(=Cc2cccs2)C(=O)N(CCc2ccccc2)S(=O)(=O)N1CCc1ccccc1 | inactive: > 50 µM |

| SMILES | GI50 |
| --- | --- |
| CCCCCCC(O)CC[C@H]1CCC[C@@H](C)N1 (stereo partly drawn) | inactive: > 31.6 µM |
| COc1nncc2[nH]c(-c3ccccc3)cc12 | inactive: > 100 µM |
| Nc1nc(Cl)cc(NCC2(CO)CCC2)n1 | inactive: > 100 µM |
| Clc1ccc2oc(CCC3CCCCC3)nc2c1 | inactive: 49.5 µM |
| CSC1C(=O)Nc2ccc3ccccc3c21 (stereo not drawn) | inactive: > 100 µM |
| NC1CCCCC1.O=C(O)C1(P(=O)(O)O)CC1 | inactive: 54.6 µM |
| CCCCCC(CO)C(O)(C(F)(F)F)C(F)(F)F (stereo not drawn) | inactive: > 10 µM |
| Oc1ccc(Nc2nc(Cl)c3nc[nH]c3n2)cc1 | inactive: > 100 µM |
| CC1C(=O)C(C)C(c2ccco2)N(N=O)C1c1ccco1 (stereo not drawn) | inactive: > 100 µM |
| CCOc1ccccc1N1C(=O)C(=O)C(c2nc3ccccc3o2)/C(=N\N)C1=O (stereo not drawn) | inactive: 50 µM |
| OCCN(CCO)c1cccc(N(CCO)CCO)n1 | inactive: > 100 µM |
| CN(CC(=O)N1CC(CCl)c2ccc([N+](=O)[O-])cc21)CC(=O)N1CC(CCl)c2ccc([N+](=O)[O-])cc21 (stereo not drawn) | inactive: > 100 µM |
| Nc1ccc(I)cn1 | inactive: > 100 µM |
| CC1c2cc(c3c(c2O)CN([C@@H](C)C2CCCCC2)CO3)C(C)c2cc(c3c(c2O)CN([C@@H](C)C2CCCCC2)CO3)C(C)c2cc(c3c(c2O)CN([C@@H](C)C2CCCCC2)CO3)C(C)c2cc1c1c(c2O)CN([C@@H](C)C2CCCCC2)CO1 (stereo partly drawn) | inactive: 1.42 µM |
| CS/C(=N/C(=O)c1ccccc1)SCCS/C(=N\C(=O)c1ccccc1)SC | inactive: > 100 µM |
| COC(=O)c1cnn2c1n[n+]([O-])c1ccccc12 | inactive: > 100 µM |
| COC(=O)[C@]1(C)CCC[C@]2(C)[C@H]3CC[C@]4(C(C)C)OO[C@@H](O4)[C@]34O[C@@H]4C[C@H]21 | inactive: 14.6 µM |
| C[C@@H]1Nc2cc(NC(=O)OCCF)nc(N)c2N=C1c1ccccc1 | active: < 0.0001 µM |
| CC1(C)N=C(N)N=C(N)N1c1ccc(CCCCc2ccc(S(=O)(=O)F)cc2Cl)c(Cl)c1 | inactive: 10.8 µM |
| O=c1[nH]c2ccsc2c(=O)n1COCc1ccccc1 | inactive: > 100 µM |
| Cc1cc2c(C(C)C)c(O)c(O)c(/C=N/c3ccccc3)c2c(O)c1-c1c(C)cc2c(C(C)C)c(O)c(O)c(/C=N/c3ccccc3)c2c1O | inactive: > 100 µM |
| COC(=O)CCc1c(Cc2ccc[nH]2)[nH]c(C(=O)OCc2ccccc2)c1C | inactive: > 100 µM |
| NC(=O)C(N)=O | inactive: > 100 µM |
| CC(C)(C)c1cc(/C=C(\C#N)C(=O)NCCO)cc(C(C)(C)C)c1O | inactive: 24.7 µM |

| SMILES | GI50 |
| --- | --- |
| COC(=O)C(O)P(=O)(OC)OC (stereo not drawn) | inactive: > 100 µM |
| O[C@@H]1C[C@H](Cl)c2c(Cl)sc(Cl)c21 | inactive: > 100 µM |
| NC(Cc1cccc([N+](=O)[O-])c1)C(=O)O (stereo not drawn) | inactive: > 100 µM |
| CN(C)/C=N/S(=O)(=O)c1nn2c(C=O)c(-c3ccc([N+](=O)[O-])cc3)nc2s1 | inactive: 20.7 µM |
| O=C(Nc1ccccc1)N1C(c2ccccc2)=N[C@@H](c2ccccc2)[C@@H]1c1ccccc1 | inactive: 27.5 µM |
| O=C(Cc1ccccc1)NN1C(=O)/C(=C\c2ccccc2)S/C1=N\c1ccccc1 | inactive: > 100 µM |
| COC(OC)C1OC(CO)C(n2cc(C)c(=O)[nH]c2=O)C1O (stereo not drawn) | inactive: > 100 µM |
| O=C(CNc1ccc([N+](=O)[O-])cc1)Nn1c(-c2ccccc2)nc2ccccc2c1=O | inactive: 15.6 µM |
| COC(OC)(c1ccccc1)C(I)I | inactive: 29 µM |
| C/C=C(\C)C(=O)N1c2ccccc2CC1c1c(C)[nH]c2ccccc12 (stereo not drawn) | inactive: 66.2 µM |
| CC1OC(OC23C(=O)CC(C)(O)CC2(O)C=CC2=C3C(=O)c3ccc(C4CC(OC5CCC(OC6CC(O)C(O)C(C)O6)C(C)O5)C(O)C(C)O4)c(O)c3C2=O)CCC1O (stereo not drawn) | inactive: 26.6 µM and inactive: 27.5 µM |
| NS(=O)(=O)c1nnc(NC(=O)N(c2ccccc2)c2ccccc2)s1 | inactive: 23.8 µM |
| COc1ccc(C2=Nn3c(nnc3-c3ccccc3)S/C2=C\c2ccc(-c3ccc([N+](=O)[O-])cc3)o2)cc1 | inactive: 54.7 µM |
| CN(C)c1ccc(C2SCC(=O)N2c2nc3cc4sc(N5C(=O)CSC5c5ccc(N(C)C)cc5)nc4cc3s2)cc1 (stereo not drawn) | inactive: 60.3 µM |
| CCOC(=O)C(NO)C(Sc1ccccc1)c1ccc(OC)cc1 (stereo not drawn) | inactive: > 100 µM |
| CSC1=N/C(=C\c2ccc(C)cc2)C(=O)N1CN1CCOCC1 | inactive: > 100 µM |
| CCOC(=O)c1nc2ccc(C(F)(F)F)cc2nc1NCc1ccc(OC)cc1 | inactive: 50.6 µM |
| COc1ccc(/C=C2\C(=O)Nc3ccccc32)cc1OC | inactive: > 100 µM |
| [N-]=[N+]=Nc1c(Cl)c(Cl)nc2ccccc12 | inactive: 27.9 µM |
| C/C=C/C(O)P(=O)(OC)OC (stereo not drawn) | active: 0.601 µM |
| O=C(Nc1c(Cl)cc([N+](=O)[O-])cc1Cl)C(=O)C(C1OC(=O)c2ccccc21)[N+](=O)[O-] (stereo not drawn) | inactive: > 100 µM |
| Cn1c(=O)c2c(nc(N/N=C3/SCC(=O)N3Cc3ccccc3)n2C)n(C)c1=O | inactive: > 100 µM |
| CCOC(=O)c1c(-c2ccc(OC)cc2)ccn1C | inactive: > 10 µM |
| O[C@@H]1C[C@H]2N3CC[C@@]2(c2cc4c(cc2C3)OCO4)[C@H]2O[C@@H]12 | inactive: > 100 µM |

| SMILES | GI50 |
| --- | --- |
| CSc1cc(Cl)c(C)cc1S(=O)(=O)NC(=O)NNc1ccccn1 | inactive: > 100 µM |
| Oc1c(N2CCOCC2)cc(-c2cc(N3CCOCC3)c(O)c3ccccc23)c2ccccc12 | inactive: 1.91 µM |
| C=C1[C@@H](O)C[C@@]23CC[C@@H]4[C@@]5(C)CC[C@@H](OC(C)=O)C(C)(C)[C@@H]5C[C@@H](OC5OC(COC(C)=O)C(O)C(O)C5O)[C@@]4(C)C2=CC[C@H]3[C@H]1C (stereo partly drawn) | inactive: 12.7 µM |
| COc1ccc(C2C3=C(COC3=O)OC(C)(C)Oc3cc4c(cc32)OCO4)cc1 (stereo not drawn) | inactive: 50.4 µM |
| Cc1ccc(NC(=O)CC2C(=O)Nc3ccccc3[S+]2[O-])cc1C (stereo not drawn) | inactive: > 100 µM |
| Brc1ccc2c3c1[C@H]1O[C@H]1c1cccc(c1-3)[C@@H]1O[C@H]21 | inactive: 15.6 µM |
| CC(C)(C)c1cc(OCc2nnc(S)n2N)c(Cl)cc1OCc1nnc(S)n1N | inactive: 45 µM |
| COc1ccc(P2(=S)OCCOP(=S)(c3ccc(OC)cc3)S2)cc1 (stereo not drawn) | inactive: 5.93 µM |
| C=CC(=O)C#Cc1cnc(OC)nc1OC | inactive: > 100 µM |
| Cc1nn(C(=O)c2ccccc2O)c2c1C(c1ccco1)SC(=N)N2 (stereo not drawn) | inactive: 3.43 µM |
| C=C1N(C=O)C(C)(C)N(O)C1(C)C | inactive: > 100 µM |
| CO/C=C(\Br)c1ccc2c(c1)OCO2 | inactive: > 100 µM |
| CCCCCCCCCCCCCCCCOP(=O)(O)OP(=O)(O)OCC1OC(n2ccc(N)nc2=O)C(O)C1O (stereo not drawn) | inactive: > 100 µM |
| Clc1ccc(Cc2nc3cc(Cl)c(Cl)cc3n2CC2CCCN3CCCCC23)cc1Cl (stereo not drawn) | inactive: 4.4 µM |
| COc1ccc(/C=C2\CN(C)CC3=C2OC(N)=C(C#N)C3c2ccc(OC)cc2)cc1 (stereo not drawn) | inactive: 50.9 µM |
| CN1C/C(=C\c2cccs2)C2=NN(c3ccccc3)C(c3cccs3)C2C1 (stereo not drawn) | inactive: 7.06 µM |
| NC(=O)c1ncn2c1NC(=O)CC2 | inactive: > 100 µM |
| O=C(O)c1ccccc1C(=O)Nc1cc2c(cc1Br)-c1ccccc1C2=O | inactive: > 100 µM |
| C/C(=C\C(=N\NC(=N)N)c1ccccc1)c1ccccc1 | active: 0.321 µM |
| O=C(C#Cc1cnc(O)nc1O)c1ccccc1Cl | inactive: 58.5 µM |
| O=S(=O)(N/C(=N\O)Nc1ccc(Cl)cc1)c1cc(S(=O)(=O)c2ccccc2)cs1 | inactive: 15.5 µM |

“And” between values parts separate entries of the source, which are not always exact repeats. Identical values can stand only once.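 96-well plates; 48 h exposure; 5 concentrations. Endpoints by linear interpolation between flanking doses. Not reached: highest tested concentration assigned. GI50 is the concentration that inhibits growth by half.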 The source made the active and inactive calls. No stated cut-off is given here; in the data, active = GI50 up to about 1.1 µM and inactive = higher.
